{"source": "paper PMC4336329", "about": "(PLoS ONE, 2015)", "note": "Out of some 310,000 compounds screened, about 14,000 (4.5%) showed an effect of 50% or more. The effect is printed as a negative number. This is one part of the list.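 Note: peak tail current of the secondary pulse compared with the same well before compound.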", "data": [{"target": "human ether-à-go-go-related gene (hERG) potassium channel (human, UniProt Q12809)", "sequence (Q12809 whole entry, looked up)": "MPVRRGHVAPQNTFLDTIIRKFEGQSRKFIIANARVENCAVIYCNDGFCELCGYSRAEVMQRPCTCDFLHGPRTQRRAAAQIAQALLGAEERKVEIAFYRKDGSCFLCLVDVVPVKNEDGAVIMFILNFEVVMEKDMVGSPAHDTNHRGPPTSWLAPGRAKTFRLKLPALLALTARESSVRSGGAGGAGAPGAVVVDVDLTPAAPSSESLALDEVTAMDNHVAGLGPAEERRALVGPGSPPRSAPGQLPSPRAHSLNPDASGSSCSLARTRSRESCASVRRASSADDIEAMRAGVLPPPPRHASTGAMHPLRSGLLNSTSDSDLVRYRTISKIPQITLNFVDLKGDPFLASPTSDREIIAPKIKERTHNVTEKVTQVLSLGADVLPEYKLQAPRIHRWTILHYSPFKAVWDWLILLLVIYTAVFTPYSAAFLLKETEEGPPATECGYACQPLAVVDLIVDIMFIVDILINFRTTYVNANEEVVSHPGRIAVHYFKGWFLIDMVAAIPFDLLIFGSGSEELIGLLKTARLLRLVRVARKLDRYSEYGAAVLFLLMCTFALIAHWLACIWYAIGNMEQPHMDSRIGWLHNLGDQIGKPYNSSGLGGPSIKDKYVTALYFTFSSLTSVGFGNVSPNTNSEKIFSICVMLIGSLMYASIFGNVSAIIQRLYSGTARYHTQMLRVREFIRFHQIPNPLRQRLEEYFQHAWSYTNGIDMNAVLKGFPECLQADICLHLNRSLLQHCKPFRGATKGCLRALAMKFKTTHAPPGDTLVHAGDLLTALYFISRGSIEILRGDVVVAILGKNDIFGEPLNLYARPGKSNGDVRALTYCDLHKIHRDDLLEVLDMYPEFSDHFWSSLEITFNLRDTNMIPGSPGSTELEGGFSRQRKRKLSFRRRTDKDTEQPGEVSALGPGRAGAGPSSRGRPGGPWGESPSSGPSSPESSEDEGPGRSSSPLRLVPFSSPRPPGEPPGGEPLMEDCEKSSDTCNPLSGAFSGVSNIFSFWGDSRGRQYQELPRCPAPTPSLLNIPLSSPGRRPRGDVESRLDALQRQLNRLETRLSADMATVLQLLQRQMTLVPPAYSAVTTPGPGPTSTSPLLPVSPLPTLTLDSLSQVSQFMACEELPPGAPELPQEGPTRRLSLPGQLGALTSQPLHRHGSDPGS", "experiment": "primary screen, population patch clamp on CHO cells stably expressing hERG", "units": {"hERG current change (%, negative = inhibition) at 10uM": "%"}, "values": [{"smiles": "O=C1C=C(c2ccccc2)C(O)(c2ccccc2)C1", "note": "(stereo not shown)", "hERG current change (%, negative = inhibition) at 10uM": 3.4}, {"smiles": "Cc1cc(C)c(NC(=O)NC(=O)C(Cl)(Cl)Cl)c(C)c1", "hERG current change (%, negative = inhibition) at 10uM": 23.5}, {"smiles": "CN1C(=O)Cc2cc(S(=O)(=O)NCc3c(F)cccc3Cl)ccc21", "hERG current change (%, negative = inhibition) at 10uM": 10.4}, {"smiles": "CC(=O)Nc1ccc(NC(=O)c2sc3nc4c(c(-c5ccc(C)cc5)c3c2N)CCC4)cc1", "hERG current change (%, negative = inhibition) at 10uM": 14.1}, {"smiles": "Cc1c(S(=O)(=O)N2CCC(C)CC2)c(=O)n(C)c(=O)n1C", "hERG current change (%, negative = inhibition) at 10uM": -0.636}, {"smiles": "O=C(NCc1cccs1)c1ccc(CS(=O)Cc2cccc(Cl)c2)o1", "note": "(stereo not shown)", "hERG current change (%, negative = inhibition) at 10uM": -39.6}, {"smiles": "NCCSc1c(-c2ccc(F)cc2)[nH]c2ccccc12", "hERG current change (%, negative = inhibition) at 10uM": -37.9}, {"smiles": "COC(=O)Cc1csc(Nc2ccccc2Cl)n1", "hERG current change (%, negative = inhibition) at 10uM": -5.19}, {"smiles": "Cc1cccc(C(=O)NNC(=O)Nc2ccccc2)c1", "hERG current change (%, negative = inhibition) at 10uM": 15.3}, {"smiles": "Cc1ccc(C)c(S(=O)(=O)N2CCCCC2CCNC(=O)C(=O)NC2CCCC2)c1", "note": "(stereo not shown)", "hERG current change (%, negative = inhibition) at 10uM": -33.2}, {"smiles": "CCc1nc(NCCCCCO)c2nnn(Cc3ccccc3F)c2n1", "hERG current change (%, negative = inhibition) at 10uM": -28.8}, {"smiles": "c1ccc2c(c1)Nc1cc3ccccc3cc1S2", "hERG current change (%, negative = inhibition) at 10uM": 8.83}, {"smiles": "CC(=O)c1c(OC(=O)c2ccc(C)cc2)c2ccccc2n1C", "hERG current change (%, negative = inhibition) at 10uM": 0.631}, {"smiles": "CC(C)CN1C(=O)c2ccc(C(=O)Nc3ccc(OCC(=O)O)cc3)cc2C1=O", "hERG current change (%, negative = inhibition) at 10uM": 5.95}, {"smiles": "CC(=O)Nc1ccc(C(=O)CSc2nnc(-c3ccc(O)cc3)n2CC2CCCO2)cc1", "note": "(stereo not shown)", "hERG current change (%, negative = inhibition) at 10uM": 12.7}, {"smiles": "CC1=NN2C(=N)/C(=C\\c3ccc(SCc4ccccc4)o3)C(=O)N=C2S1", "hERG current change (%, negative = inhibition) at 10uM": -4.06}, {"smiles": "CCOc1ccc(CNC(=S)N/N=C/c2ccncc2)cc1", "hERG current change (%, negative = inhibition) at 10uM": -1.2}, {"smiles": "COc1cccc(OC(=O)CSc2nnc(-c3ccccc3Br)o2)c1", "hERG current change (%, negative = inhibition) at 10uM": 10.6}, {"smiles": "O=C(Nc1cccc(C(F)(F)F)c1)C1CCCN(c2ncccn2)C1", "note": "(stereo not shown)", "hERG current change (%, negative = inhibition) at 10uM": -53.4}, {"smiles": "NC(=O)c1c(-c2ccc(Cl)cc2Cl)csc1NC(=O)Cc1ccccc1", "hERG current change (%, negative = inhibition) at 10uM": 2.33}, {"smiles": "COc1ccc(OC)c(-c2csc(NC(=O)COC(=O)C3(C)CC3(Cl)Cl)n2)c1", "note": "(stereo not shown)", "hERG current change (%, negative = inhibition) at 10uM": -3.11}, {"smiles": "NS(=O)(=O)c1ccc(CNC(=O)CCC2CCCCC2)cc1", "hERG current change (%, negative = inhibition) at 10uM": -2.5}, {"smiles": "O=C1CCC([N+](=O)[O-])C(C2CC=CCC2)N1", "note": "(stereo not shown)", "hERG current change (%, negative = inhibition) at 10uM": 4.76}, {"smiles": "Cc1ccc(NC(=O)CSc2nc(O)c(Cc3ccccc3)c(=O)n2-c2ccccc2)cc1", "hERG current change (%, negative = inhibition) at 10uM": 8.57}, {"smiles": "O=C(Nc1nnc(COc2ccc(Cl)cc2)s1)c1ccc([N+](=O)[O-])cc1", "hERG current change (%, negative = inhibition) at 10uM": 4.86}]}]}
